# From ChEMBL document CHEMBL4888484, “Replenishing the malaria drug discovery pipeline: Screening and hit evaluation of the MMV Hit Generation Library 1 (HGL1) against asexual blood stage Plasmodium falciparum ,using a nano luciferase reporter read-out” (2022)
# In all, about 150,000 compounds went through this assay and about 540 (0.36%) showed an effect of 50% or more. This is one part of the list.
# Test system: Plasmodium falciparum
# Assay: Primary screen in NF54 nanoGlo assay, in single point, at 2uM, 72h; a lower Z score goes with more inhibition
# Type: functional, Erythrocyte
# Settings: timepoint 72 hour
Structure (SMILES),% Inhibition,Z score
CCOC(=O)[C@]1(F)CN(CCc2ccncc2)CC12COC2,7%,-1.2
Cc1nc(NC(=O)N2CC3CCC2CN3)ccc1-c1ccccc1 (centres undefined),-2%,0.33
O=C(c1cc[nH]n1)N1C[C@H](c2cc(F)cc(F)c2)[C@@H]2[C@H]1C1CCN2CC1,-7%,1.17
CCN1C[C@]2(COC)CCC(OC)[C@@]34C5C[C@]6(O)C(OC)C[C@@](OC(C)=O)(C5[C@H]6OC(=O)c5ccc(OC)cc5)C(C(OC)C23)[C@@H]14 (some centres undefined),-5%,0.46
CC1OCCC1(O)Cn1cnc2c(N3C4CCC3C(CO)C4)ncnc21 (centres undefined),-9%,1.18
O=c1[nH]c2ccc(S(=O)(=O)Oc3cccc4ccccc34)cc2o1,5%,-0.69
O=C1N=C(O)NC(=O)C12Cc1ccccc1OC2c1ccccc1 (centres undefined),-6%,0.92
CC(C)(C)n1nnc(CNC2(c3ccc(F)cc3F)CCCCC2)n1,35%,-3.91
CN1CCN(C(=O)Cc2ccc(Cl)c(Cl)c2)[C@H]2CS(=O)(=O)C[C@H]21,9%,-1.34
Cc1ccc([C@H]2N[C@](CO)(Cc3c[nH]c4ccccc34)[C@H]3CN(C)C[C@@H]23)o1,-18%,2.69
Cc1oncc1C(=O)N1C[C@H](c2ccc3c(c2)OCO3)[C@@H]2[C@H]1C1CCN2CC1,-3%,0.46
CN(C)c1ccc([C@@H]2c3cccn3-c3ccccc3CN2C(=O)NCc2ccc(F)cc2)cc1,-9%,1.12
Cc1ccc(C)c(NC(=O)[C@H](C)N2CC=C(c3ccnc4[nH]ccc34)CC2)c1,-19%,1.95
CCOc1ccc(NC(=O)N2CC[C@@]3(C2)C(=O)Nc2ccc(OC)cc23)cc1,-3%,0.4
O=C(O)[C@@]12COc3ccccc3[C@@H]1CN(C1CCCC1)C2,-4%,0.82
O=c1[nH]c2ccc(S(=O)(=O)N3C[C@H]4CC[C@@H](C3)N(CC3CC3)C4)cc2o1,-15%,1.93
CC1(O)CNC2CC1(O)Oc1ccccc12 (centres undefined),0%,-0.06
CCn1nc(C(=O)N2CCC3(CC2)OCCO3)cc1-c1ccc(OC)cc1,-15%,1.48
c1ccc2c(c1)CC1CCCC2C1NCCn1ccnc1 (centres undefined),-1%,0.1
CN(C)C(=O)CN1C(=O)[C@@H]2CC[C@H]1CN(Cc1cccnc1N)C2,-9%,1.36
CCOC1CC(NC2CN(C)CC2C)C12CCCC2 (centres undefined),2%,-0.25
CC(C)C(NC(=O)c1nn(Cc2ccccc2)c2nccc(-c3cccs3)c12)C(C)C,-4%,0.45
CN1C(=O)c2cccnc2O[C@H]2CN(Cc3cccc(F)c3)C[C@H]21,-11%,1.6
COc1snc(C(Cl)(Cl)Cl)c1Cl,41%,-5.24
Cc1cccc(N2CCN(C(=O)CCc3nc(C4=CCN(C)CC4)no3)C[C@@H]2C)c1,16%,-2.08
CCn1ccc2cc(CN(C)[C@@H](C)Cc3cnccn3)ccc21,6%,-1.08

Structure (SMILES),% Inhibition,Z score
CCn1c(C)cc2[nH]nc(NC(=O)c3cnn(C4CCC4)c3)c2c1=O,-2%,0.27
COc1cc(C[C@H](C)NCc2scnc2C)ccn1,-1%,0.21
O=C([C@H]1CN2CCC1C[C@@H]2Cn1cc(C2(O)CCCC2)nn1)N1CCOCC1 (some centres undefined),9%,-1.08
O=C(NCCS(=O)(=O)F)c1ccccc1,-15%,1.6
CCN1CCN(C(=O)Cc2c(C)nc3nc(-c4cccs4)nn3c2C)CC1,-5%,0.51
CN(CCN1C[C@@H]2CC[C@H]1C2)Cc1nccs1,0%,-0.06
O=c1ccc(-c2cccnc2)c2n1C[C@H]1C[C@@H]2CN(S(=O)(=O)c2ccccc2)C1,31%,-3.46
Cc1cc(CC(=O)N2C(C)CN(C)CC2C)n[nH]1 (centres undefined),-9%,0.84
Fc1ccc2c(N3CC[C@@]4(CCCCN4)C3)nccc2c1,-1%,0.12
CCN(CC)CCC1C(=O)N(c2ccccc2)C(=O)N(c2ccccc2)C1=O,36%,-0.89
C=CCc1ccccc1OCC#CCN1CCOCC1,-14%,1.54
Cc1cc(CC(=O)N2CCN(CC(C)C)[C@@H]3CS(=O)(=O)C[C@@H]32)ccc1F,9%,-0.97
COCCN1C[C@H]2CN(Cc3ccccn3)CCN2C1=O,31%,-3.54
Cn1cc(CN2CCC3(O)CCCCC3C2)nn1 (centres undefined),13%,-1.61
O=C(Cc1cccnc1)N1C[C@H]2CC[C@@H](C1)N(CC1CCC1)C2,7%,-0.87
CC(C)(C)OC(=O)NC[C@H](CC(=O)O)C1CCC1,13%,-1.47
O=C(Oc1ccccc1)N1CCN(CCCO)CC1,-5%,0.53
COc1cccc([C@H]2CCN(C/C=C/c3ccco3)C[C@@H]2O)c1,-4%,0.8
c1ccc(CN2C3CCC2CNC3)cc1,-2%,0.25
c1cncc(Cc2n[nH]c(C3(N4CCOCC4)CCCCC3)n2)c1,4%,-0.69
CC1(C)COC2(CCN(C(=O)C(C)(C)c3cccc(F)c3)CC2)OC1,-17%,1.99
O=c1nc(O)n(Cc2ccccc2)c(O)c1[C@H]1c2ccccc2Oc2nc(O)n(Cc3ccccc3)c(=O)c21,13%,-1.18
O=C(NCCc1nc(=O)o[nH]1)C1(c2cccs2)CCCCC1,2%,-0.31
CCCCN1C(=O)c2ccccc2C(C(=O)N2CCC3(CC2)OCCO3)C1c1cccc(Cl)c1 (centres undefined),-25%,2.21
CC(C)(C)c1cn(C[C@H]2C[C@@H]3CCN2C[C@@H]3C(=O)NC2CCCCC2)nn1,-7%,1.1
Cn1cccc1C(=O)N1C[C@@H]2CC[C@H]1CN(Cc1ccccn1)C2,-26%,3.36
